# Experimental data as given in patent US20230174649A1, “PHARMACEUTICAL COMPOSITIONS CONTAINING ANTI-CD47 ANTIBODIES” (I-MAB BIOPHARMA US LIMITED, priority 2020, published 2023).
# Where “and” joins values, the source holds several entries; their conditions need not be identical. Equal entries are not always repeated.
# Assays:
# [1] = test system: WSU-DLCL2 cells; assay: Anti-tumor efficacy in WSU-DLCL2 tumor xenograft model; assay type: in vivo, NOD/SCID mice; conditions: 5 mg/kg each agent
# Excerpt: To establish the xenograft model, human diffuse large B Cell lymphoma (WSU-DLCL2 cells) were subcutaneously (s.c.) injected into 6- to 7-week-old NOD/SCID mice (Shanghai Lingchang Biotechnology Co., Ltd, Shanghai, China) for tumor development. When tumor volume reaches a mean value of approximately 94 mm^3, 32 mice were divided into 4 groups of 8 equally and injected intravenously (i.v.) with PBS (control group), anti-CD47 antibody (i.e. T4J), rituximab, or anti-CD47 antibody T4J+ rituximab at a dose of 5 mg/kg, respectively (See, Table 5). The anti-tumor efficacy studies were performed using a twice per week dosing schedule (5 mg/kg) for 4 weeks.
# The first day of antibody administration was designated as day 0. Mice were then monitored for tumor development and progression, and observation continued until day 43. Tumor volumes were measured twice a week in two dimensions (length and width) using a caliper, and the volumes were calculated using the following formula: Volume (V)=(L×W×W)/2, where L is tumor length (the longest tumor dimension) and W is tumor width (the longest tumor dimension perpendicular to L). The percentage of tumor growth inhibition (TGI) was calculated as follows: 100%×(1−[(Vtreated(^finalday)−Vtreated(^initial day))/(Vcontrol(^final day)−Vcontrol(^initial day)))]), where V is the tumor volume. Tumor body weight was measured twice per week after randomization and at day 43. Antibody treatment was then stopped after 43 days of study and mice were euthanized and necropsied for evidence of tumors.
# Group comparisons were carried out using one-way analysis of variance (ANOVA). Data analysis were performed using IBM SPSS software version 18.0 (IBM, Armonk, N.Y., U.S.). Values of tumor volume and tumor body weight were expressed as mean±standard error of the mean (SEM). A P value of less than 0.05 (p<0.05) was considered statistically significant.
# [2] = test system: HL-60 cells; assay: Anti-tumor efficacy in subcutaneous HL-60 xenograft model; assay type: in vivo, female NOG mice
# Protocol: HL-60 cells (a human promyelocytic leukemia cell line, ATCC® cat #CCL-240) were maintained in suspension culture in complete cell growth medium at 37° C. in an atmosphere with 5% CO2. The cells were split twice a week to maintain an exponential growth. After culturing, cells were harvested and counted for tumor inoculation.
# To establish the xenograft model, HL-60 cells (10×10^6) were suspended in 0.2 mL of PBS with the same volume of Matrigel and subcutaneously injected into the right flank of each mouse. When tumor volume reaches a mean value of approximately 72 mm^3, i.e., on day 6 after inoculation, mice were divided into several groups and treated with PBS (control group), anti-CD47 antibody (i.e., T4J), AZA, or a combination of T4J and AZA, respectively.
# At the time of routine monitoring, the animals were daily checked for any effects of tumor growth and treatments on normal behavior such as mobility, food and water consumption (by looking only), body weight gain/loss (body weights were measured twice a week), eye/hair matting and any other abnormal effects. Death and observed clinical signs were recorded.
# Tumor size was measured twice a week in two dimensions using a caliper, and the volume was calculated using the formula: Volume (V)=(L×W×W)/2, where L is tumor length (the longest tumor dimension) and W is tumor width (the longest tumor dimension perpendicular to L). The tumor volume was then used for calculating T/C values. The T/C value (in percentage) is an indicator of antitumor effectiveness, in which T and C are the mean volumes of the treatment group and the control groups, respectively.
# The percentage of tumor growth inhibition (TGI) was calculated for each group as follows: 100%×(1−[(Vtreated(^final day)−Vtreated(^initial day))/Vcontrol(^final day)−Vcontrol(^initial day)))], where V is the tumor volume.
# Tumor body weight was measured at the end of the study. T/C weight value (in percentage) was calculated using the formula: T/C weight %=T weight/C weight×100% where T weight and C weight were the mean tumor body weight of the treatment group and the control group (vehicle group), respectively.
# Q=TGI(A+B))/(TGI(A)+TGI(B)−TGI(A)×TGI(B))
# According to Jin's formula, Q<0.85 indicates antagonistic effect, 0.85≤Q<1.15 indicates additive effect, and Q≥1.15 indicates synergistic effect.
# T-test was performed to compare tumor body weight among groups. One-way ANOVA was performed to compare tumor volume among groups, and when a significant F-statistics (a ratio of treatment variance to the error variance) was obtained, comparisons between groups were carried out with Games-Howell test. All data were analyzed using IBM SPSS software. A P value of less than 0.05 (p<0.05) was considered statistically significant.
# [3] = test system: Toledo Cells; assay: FACS-based phagocytosis assay, macrophages cocultured with Toledo cells; assay type: cell-based, Human
# Protocol: FACS-based phagocytosis assays were performed to evaluate the phagocytic abilities of macrophages.
# Toledo Cells (a tumor cell line, as a target) were labelled with CellTrace™ Far Red and plated into 96-well plate at a density of 0.15×10^6 cells/well for 12 hours. The Macrophages were prepared as discussed above and then labelled with CellTrace Violet. Next, the macrophages were added into the plate as an effector at an effector:target (Toledo) ratio of 1:3, giving a final density of macrophages at 0.05×10^6 cells/well. Macrophages and tumor cells were cocultured for 2-6 h at 37° C. in the presence of the indicated treatments (small molecule therapeutic agents, CD47 antibody, CD20 antibody or combinations). The incubation time depending on the phagocytosis rate, expecting phagocytosis of 5-20% cells.
# Then, cells were acquired and data were analyzed.
# [4] = from tumor volume, i.v., BIW × 4 weeks, day 43
molecule,measurement,setting,value
"T4J: isolated anti-CD47 antibody, SEQ ID NO: 81 and SEQ ID NO: 82 (antibody, listed as Homo sapiens) heavy: EVQLVESGGGLVKPGGSLRLSCAASGLTFERAWMNWVRQAPGKGLEWVGRIKRKTDGETTDYAAPVKGRFSISRDDSKNTLYLQMNSLKTEDTAVYYCAGSNRAFDIWGQGTMVTVSSASTKGPSVFPLAPCSRSTSESTAALGCLVKDYFPEPVTVSWNSGALTSGVHTFPAVLQSSGLYSLSSVVTVPSSSLGTKTYTCNVDHKPSNTKVDKRV[skipping human IgG4 Fc with S228P (EU numbers)] light: DIVMTQSPDSLAVSLGERATINCKSSQSVLYAGNNRNYLAWYQQKPGQPPKLLINQASTRASGVPDRFSGSGSGTEFTLIISSLQAEDVAIYYCQQYYTPPLAFGGGTKLEIKRTVAAPSVFIFPPSDEQLKSGTASVVCLLNNFYPREAKVQWKVDNALQSGNSQESVTEQDSKDSTYSLSSTLTLSKADYEKHKVYACEVTHQGLSSPVTKSFNRGEC",anti-tumor efficacy compared with the control group,[1]; after four weeks of dosing / day 43,no anti-tumor efficacy
same,Tumor Body Weight (mg) on day 43 (Mean ± SEM),"[1]; i.v., BIW × 4 weeks, day 43",2426.0 ± 283.0 mg
same,Tumor Volume (mm^3) on day 43 (Mean ± SEM),"[1]; i.v., BIW × 4 weeks, day 43",2148.89 ± 227.87 mm^3
same,T/C (%),"[1]; from tumor body weight, day 43",96%
same,TGI (%),"[1]; from tumor body weight, day 43",4%
same,T/C (%),[1]; [4],99%
same,TGI (%),[1]; [4],1%
same,"Tumor volume (mm^3), Mean ± SEM","[2]; day 0 (first dosing), 3 mg/kg",70 ± 7 mm^3
same,"Tumor volume (mm^3), Mean ± SEM","[2]; day 3, 3 mg/kg",180 ± 10 mm^3
same,"Tumor volume (mm^3), Mean ± SEM","[2]; day 7, 3 mg/kg",473 ± 36 mm^3
same,"Tumor volume (mm^3), Mean ± SEM","[2]; day 10, 3 mg/kg",760 ± 52 mm^3
same,T/C (%),"[2]; day 12, 3 mg/kg",41.68%
same,TGI (%),"[2]; day 12, 3 mg/kg",59.74%
same,"Tumor volume / Tumor Size (mm^3) at day 12, Mean ± SEM","[2]; day 12, 3 mg/kg",1235 ± 89 mm^3
same,macrophage phagocytosis (untreated = 1.00),"[3]; Cpd 0, T4J = 0.1 ug/ml, R = 0",2.20 and 2.41 and 2.30
same,phagocytic ability of macrophages,[3]; agent itself or antibody combination,can promote macrophage phagocytosis
